# Experimental data reported in PubChem BioAssay AID504467 (National Center for Advancing Translational Sciences (NCATS), 2011).
# Among all 330,000 compounds or so, about 7,700 (2.3%) were called active. About 26% were inconclusive and are not listed. Calls follow the shape of the dose curve; as a rule, active = well fitted inhibition curve with a large enough effect; inconclusive = small, poorly fitted or top-dose-only effect, or effect the other way; inactive = flat fitted curve, though single readings scatter. The entries are a selection whose mix differs from that of the whole data set.
# Experiment: qHTS screen for small molecules that inhibit ELG1-dependent DNA repair in human embryonic kidney (HEK293T) cells expressing luciferase-tagged ELG1; also: nearly all actives have a fitted effect of over 55% in size
# Conditions: HEK293T ELG1-luciferase reporter, luminescence, 16 h, DNA damage induced by 5-fluorouridine; series mostly up to 46.1 µM; activity change, negative = inhibition: at the top concentration
# Summary of the method: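 HEK293T cells expressing luciferase-tagged ELG1 (2,000/well) received 5-Fluorouridine plus compound or DMSO for 16 hr at 37 °C. Luciferase was read by ONE-Glo luminescence after 30 min at room temperature.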
# % is scaled to controls: 0 for no effect and ±100 for the full control effect; potency is read from the fitted curve at half-maximal effect.
SMILES,Potency,"activity change, negative = inhibition"
Cc1ccc2c(c1)C(c1ccccc1)N(C(=O)c1ccccc1[N+](=O)[O-])CC(=O)N2 (stereo not drawn),active: 20.6 µM,
O=S(=O)(c1cccc2nsnc12)N1CCN(C/C=C\c2ccccc2)CC1,,inactive: -12.9%
O=C(Nc1cccc2ccccc12)/C(=C\c1cccc([N+](=O)[O-])c1)NC(=O)c1cccs1,,inactive: -30%
CC(C)(C)OC(=O)C[C@@H]1C/C=C\C[C@@H](CC(=O)N[C@H](CO)Cc2ccccc2)C(=O)NCCOC1=O,,inactive: 0.537%
OCC[C@H]1C[C@H](O)[C@@H](O)[C@]2(Cc3ccccc3CO2)O1,,inactive: 6.4%
CCSc1ccc([C@@H]2[C@@H]3C(=O)N(C)C(=O)[C@@H]3[C@]3(C(=O)OC)CCCCN23)cc1OC,,inactive: -11.5%
C/C(Cl)=C\CSc1nnc2n(N)c(=O)c3ccccc3n12,,inactive: -1.31%
O=C(C1=C[C@H](c2coc3ccccc3c2=O)C[C@H](OCc2ccc(CO)cc2)O1)N1CCN(Cc2ccc3c(c2)OCO3)CC1,active: 13 µM,
O=C(Cc1ccc(F)cc1)N[C@@H]1c2ccccc2CC[C@H]1OCc1ccccc1,,inactive: 11.1%
CC(C)[C@H](NC(=O)N1CC(=O)Nc2ccccc21)C(=O)N1CCC[C@@H]1C(=O)O,,inactive: 10.5%
CCCn1c(SCC(=O)Nc2sc(C)c(C)c2C#N)nnc1C(C)C,active: 20.6 µM,
CCO[C@H]1OC(C(=O)NCc2ccccc2)=C[C@@H](c2ccc(C(F)(F)F)cc2)[C@@H]1CCCO,,inactive: -10.5%
COc1ccc2[nH]c3c(c2c1)CCN1C(=O)C(CC(=O)NCC24CC5CC(CC(C5)C2)C4)C[C@H](C(=O)N2CCCCC2)[C@@]31C (stereo partly drawn),active: 13 µM,
CC(=O)C[C@H](O)CC(=O)[C@@H]1OC(=O)CCCCC/C=C/Cc2ccccc21,,inactive: 14.8%
C=CC[C@H](CC(=O)N[C@H](CO)Cc1ccccc1)C(=O)N[C@H](COC(=O)[C@@H](CC=C)CC(=O)OC(C)(C)C)Cc1c[nH]c2ccccc12,,inactive: -7.35%
COc1ccc(OC)c(NC(=O)CN(c2ccc(C(C)C)cc2)S(=O)(=O)c2c(C)noc2C)c1,active: 8.2 µM,
C[C@H](NC(=O)c1[nH]cnc1C(=O)Nc1nccs1)c1ccccc1,,inactive: 15.9%
C[C@@H]1OC(Nc2ccc(N=Nc3ccccc3)cc2)[C@H](O)[C@H](O)[C@H]1O (stereo partly drawn),,inactive: 0%
COc1ccc(S(=O)(=O)N(C)C[C@H]2Oc3c(NS(=O)(=O)c4cn(C)cn4)cccc3C(=O)N([C@H](C)CO)C[C@@H]2C)cc1,,inactive: 16.9%

SMILES,Potency,"activity change, negative = inhibition"
O=C(c1cc(=O)[nH]c2ccccc12)N1CCN(S(=O)(=O)c2ccc(Cl)cc2)CC1,active: 23.1 µM,
COC(=O)Cc1csc(N)n1,,inactive: 10.3%
O=C(NCCO)/C(=C\c1ccc2c(c1)OCO2)NC(=O)c1ccc(Br)cc1,,inactive: 0.678%
CCC12CCCN3CCc4c(n(c5ccccc45)C(O)(C(=O)OC)C1)C32 (stereo not drawn),,inactive: 3.73%
CC(C)NC(=O)N(C)C[C@H]1Oc2ccc(NC(=O)Nc3ccccc3)cc2C(=O)N([C@@H](C)CO)C[C@@H]1C,,inactive: 11.7%
COc1cc(C(=O)O[C@H]2C/C(C)=C/CC[C@]3(C)O[C@@H]3C(O)C2C(C)C)cc(OC)c1OC (stereo partly drawn),,inactive: -17.3%
OCC[C@H]1C[C@H](O)[C@@H](O)[C@]2(CCc3ccccc3CO2)O1,,inactive: 3.22%
O=C(O)CSc1nc2c(c(C(F)(F)F)n1)CCCC2,,inactive: -0.906%
COC(=O)[C@@H]1C[C@@]2(O)[C@@H](O)[C@@H](O)[C@@H](O)C[C@H]2N1C/C=C/c1ccccc1,,inactive: 9.65%
O=[N+]([O-])c1ccc(C(O)C(CO)NC(=S)Nc2ccccc2)cc1 (stereo not drawn),active: 8.2 µM,
O=C(COc1ccccc1)N[C@@H]1c2ccccc2CC[C@@H]1OCc1ccccc1,,inactive: -4.54%
COc1cc(C(=O)NCc2ccncc2)cc(Br)c1OCc1ccccc1,active: 14.6 µM,
CC(C)(C)OC(=O)C[C@@H]1C/C=C\C[C@@H](CC(=O)NCCO)C(=O)N2CCC[C@H]2COC1=O,,inactive: 10.9%
CCO[C@@H]1OC(C(=O)N2CCN(Cc3ccccc3)CC2)=C[C@H](c2cn(C(C)=O)c3ccccc23)[C@H]1CCCO,,inactive: -22.3%
COC(=O)[C@@H]1C[C@@]2(O)[C@@H](O)[C@@H](O)[C@@H](O)C[C@H]2N1Cc1ccc(C)s1,,inactive: 29.5%
Cc1ccc(-c2nc(NC(=O)c3nn(C)cc3[N+](=O)[O-])sc2C)cc1,active: 16.4 µM,
COc1ccccc1NC(=O)[C@@H]1CCCN1S(=O)(=O)c1ccc(Cl)cc1,,inactive: -17.8%
O=C(C1=C[C@H](C2CC2)C[C@H](OCCCCO)O1)N1CCOCC1,,inactive: 20.5%
CC(C)(C)OC(=O)NCc1ccc(CNC(=O)c2nc[nH]c2C(=O)N2CCN(C(=O)OC(C)(C)C)CC2)cc1,active: 11.6 µM,
